ChEMBL document CHEMBL4888484, “Replenishing the malaria drug discovery pipeline: Screening and hit evaluation of the MMV Hit Generation Library 1 (HGL1) against asexual blood stage Plasmodium falciparum ,using a nano luciferase reporter read-out” (2022)
Out of some 150,000 compounds screened, about 540 (0.36%) showed an effect of 50% or more. The list shows a part of the results.

tested on: Plasmodium falciparum; assay: Primary screen in NF54 nanoGlo assay, in single point, at 2uM, 72h; a lower Z score goes with more inhibition; type: functional, Erythrocyte; settings: timepoint 72 hour

Structure (SMILES) | % Inhibition | Z score
O=C(NCCn1nc(-c2ccccn2)c2c1CCCC2)c1cccnc1 | 1% | -0.17
Cc1c(C(=O)Nc2ccc(F)c(Cl)c2)sc2ncnc(N3CCc4ccccc4C3)c12 | 17% | -1.95
COc1ccc(-c2nc(N3CCCCCC3)nc3nn4c(C)cc(C)nc4c23)cc1 | -5% | 0.63
C=CCNC(=O)N1CCc2nc(N3CCC(C)CC3)nc(Oc3cccc(OC)c3)c2C1 | 2% | -0.33
Cn1cc(NC(=O)NCC(C)(C)C2CCOCC2)c(C(F)(F)F)n1 | -10% | 1.61
Cc1cc(C)cc(C[C@H]2CC(=O)N(Cc3cc(C)on3)C2=O)c1 | -10% | 1.75
CCC1CN(C(=O)c2sccc2F)C1 | -10% | 1.62
CN(c1ccccc1NC(=O)c1cn[nH]c1)C1CCCC1 | -13% | 2.53
O=C(NCc1ccccn1)c1ccncc1 | 1% | -0.13
CC(NS(=O)(=O)CC1CCCC1(F)F)c1ccn(C)n1 (configuration not stated) | -3% | 0.53
O=C(CN1CCC(c2ncco2)CC1)Nc1ccc2c(c1)OCO2 | 2% | -0.32
CCCc1nc(CNC(=O)c2cccn2C2CC2)cs1 | -11% | 1.75
O=C1NC(C2(O)C(=O)Nc3ccccc32)C(=O)N1Cc1ccccc1 (configuration not stated) | 7% | -0.93
O=C(N[C@@H]1CN(Cc2ccc(F)cc2F)C[C@H]1CO)c1cnccn1 | -8% | 1.37
CC(C)S(=O)(=O)Nc1cccc(O)c1 | -2% | 0.23
Cc1cc(CC(=O)N2CCC[C@H]2c2cccc(Br)c2)n[nH]1 | -2% | 0.3
Cc1sc(CCNC(=O)c2ccc3nc4n(c3c2)CCC4)nc1-c1ccccc1 | 4% | -0.69
CCCC(=O)Nc1ccccc1C(=O)O | 0% | -0.03
Cn1cc(-c2ccc(C(=N)NO)cc2)[n+](C)c1 | -31% | 3.58
Cc1nnsc1CN(C)C(=O)c1ccc([C@@H]2CCCN2)s1 | -5% | 0.65
CCCc1ccccc1NC(=O)N1CCC(C)(C)S(=O)(=O)CC1 | -9% | 0.93
Cc1ccc(CCNC(=O)C(C)(C)NC(=O)Nc2ccccc2)cn1 | -3% | 0.38

Structure (SMILES) | % Inhibition | Z score
CCCc1ccc(CN2CC(N3CCCCC3)C2)o1 | -3% | 0.47
Cc1cccc2c1NC1(CCCCCC1)C[C@@H]2C | -16% | 1.94
Cc1ccc(CN(Cc2ccc(F)cc2)Cc2nc(C(=O)Nc3ccc(C)c(C)c3)cs2)cc1 | -3% | 0.44
Cc1nn(C)cc1C(=O)Nc1cc(Cl)ccc1NC1CC1 | 25% | -2.77
Cc1cccc(O[C@@H](C)C(=O)NC(C)(C)C)c1 | -3% | 0.43
CCC(NC(=O)c1cc(C)c(O)c(C)c1)[C@H]1C[C@H](O)C1 (some centres not stated) | -3% | 0.32
CCOCC(=O)NC[C@H](OCCO)c1ccc(C)cc1 | 6% | -0.89
O=C1CCC2(CCN(C/C=C/c3ccc(F)cc3)CC2)CN1Cc1cccnc1 | 8% | -1.08
C#C[C@H](CO)NC(=O)N[C@H]1C[C@H](c2ccc(F)cc2)C1 | -1% | 0.24
C#Cc1cccc(NC(=O)CCOCc2ccccc2)c1 | -10% | 1.89
FC(F)(F)c1ccc2sc(NC[C@H]3CCCO3)nc2c1 | -2% | 0.23
CCn1cnnc1CN(C)Cc1cc2n(n1)CCCN(c1ccncc1)C2 | -17% | 2.64
Cc1ccc(Cl)cc1N1CCN(C(=O)C2CCCC2)[C@@H](C)C1=O | -1% | 0.08
CNc1ccc(NC(=O)Cc2c(C)noc2C)cn1 | -36% | 4.21
Cn1cc(C(=O)NCC2CCN(C(=O)c3ncc(F)cc3F)CC2)cn1 | -6% | 0.56
CN(Cc1nccs1)C(=O)[C@@]1(C)CCCN(C(=O)c2ccccc2)C1 | -11% | 1.15
O=C(C1CCN(S(=O)(=O)c2ccc(-c3ccn[nH]3)o2)CC1)N1CCN(c2ccccc2F)CC1 | -1% | 0.1
N#Cc1ccccc1OCCCO[C@@H]1CCCCO1 | -10% | 1.06
CN(CCc1noc(-c2ccccc2)n1)S(=O)(=O)c1ccccc1Cl | -2% | 0.37
Cc1ccc(CCNc2ccccc2S(C)(=O)=O)cn1 | -6% | 0.78
CCc1cccc(C)c1NC(=O)Cn1c(=O)n(CCc2cccs2)c(=O)c2sccc21 | 1% | -0.15
Cc1oc2ncn(CCC(=O)N[C@@H](C)Cc3ccco3)c(=O)c2c1C | -6% | 1.08

Structure (SMILES) | % Inhibition | Z score
O=C(NC1(C(F)(F)F)CCOCC1)N1CCOC[C@@H]1CC1CC1 | -9% | 1.78
O=S(=O)(c1ccc2c(c1)CCC2)N1CCC[C@H]1c1cccc(F)c1 | 5% | -0.64
CC(c1ccccc1)(c1ccc(NC(=O)c2ccccc2)cc1)c1ccc(NC(=O)c2ccccc2)cc1 | -5% | 0.82
Cc1ccccc1-c1ncc(CN2CCC[C@H](Nc3ccc4c(c3)OCO4)C2)cn1 | 2% | -0.3
COc1ccc(CC[C@H](C)NC(=O)c2c(C)noc2C)cc1 | -12% | 1.13
CS(=O)(=O)c1ccc(CN2CC[C@H](N3CCOCC3)[C@H](CCCO)C2)cc1 | -14% | 1.84
Cc1cnn([C@H]2CCN(Cc3csc(C4CCCC4)n3)C2)c1 | -1% | 0.18
O=C1NC[C@@H](O)CC12CN(c1nc(C3CCCCC3)ns1)C2 | 10% | -1.05
Cn1ncnc1COc1ccccc1-c1nccs1 | -1% | 0.24
C=CCNC(=O)NC(=O)CN(C)C1CCOC(c2ccc(F)cc2)C1 (configuration not stated) | -1% | 0.18
CCOc1cc(C(=O)N(C(=O)c2cc(OCC)c(OCC)c(OCC)c2)c2ccccc2C(F)(F)F)cc(OCC)c1OCC | 32% | -3.64
COc1ccc(-c2cc3c(N4CCN(C)CC4)nccn3n2)cc1OC | 38% | -1.19
CC(C)(O)c1cnn(Cc2ccccc2)n1 | -48% | 5.61
CCC(CC)NC(=O)c1cncn1-c1ccc(-c2cc(C)cc(C)c2)cc1 | -1% | 0.09
c1cc(-n2cnnc2)ccc1OC[C@@H]1CCCN2CCCC[C@H]12 | -18% | 3.01
C[C@H](NS(=O)(=O)c1ccccc1)C(=O)N1CCN(C(c2ccccc2)c2ccccc2)CC1 | -3% | 0.59
Cc1ccc(-c2coc(-c3ccc(NC(=O)Nc4ccc(F)cc4F)cc3)n2)c(C)c1 | 0% | 0.06
CCc1nc(CN(C)Cc2cc(C(=O)O)sc2C)cs1 | -4% | 0.7
Cc1nnc(Cc2ccc(NC(=O)NCC3(Cn4cccn4)CC3)cc2)[nH]1 | -4% | 0.79
CCC[C@H](C)NC(=O)CN(c1ccc(Oc2ccccc2)cc1)S(=O)(=O)c1ccccc1 | -9% | 1.31
O=C(O)Cc1ccc(S(=O)(=O)N2CC3(CC3)c3ccccc32)cc1 | -10% | 1.18
O=C(CN1C(=O)CCC1=O)c1ccc(-c2ccccc2)cc1 | -7% | 1

Structure (SMILES) | % Inhibition | Z score
O=C(c1cc(C2CC2)[nH]n1)N1CC(F)(F)C[C@H]1COc1ccncc1 | -11% | 1.83
CCn1nc(C(=O)N2CCCCC2)c2c1CCOC2 | 3% | -0.33
Nc1c(F)cc(Cl)cc1C(=O)N1CCC(c2ccn[nH]2)CC1 | -4% | 0.37
Cc1cccc(-c2nnc3c4ccccc4nc(N4CCN(C(=O)c5ccc(Cl)cc5)CC4)n23)c1 | 4% | -0.5
CCCn1c(-c2ccc(=O)[nH]c2)nc2ccccc21 | 5% | -0.94
C#CCOc1ccccc1CNC(=O)[C@H](O)c1ccccc1 | -8% | 1.02
COc1cc(-c2ncc(F)c(N(C)C)n2)c(Cl)cn1 | 1% | -0.19
O=C(Cn1cccn1)N1C[C@](O)(C(F)(F)F)c2cccnc21 | -9% | 1.79
O=C(NCCN1C(=O)COC1=O)Nc1nc2c(s1)CCCC2 | -13% | 2.5
CC(=O)N(CCN1CCCCC1)[C@H]1CCCN(C(=O)c2cc(Cl)ccc2F)C1 | -9% | 1.17
Cc1cc(C(=O)NC[C@]2(O)CCCN(C(=O)Cn3ccnc3)CC2)c(C)o1 | -5% | 0.46
CCN1C(=O)[C@@H]2CC3(CCN(C(=O)Cc4ccccc4)CC3)CN2C1=O | -13% | 1.71
CN(CCC[C@H]1CCCO1)C(=O)NCc1nc(C2CCCCC2)no1 | -13% | 2.35
CCOc1cccc(COC(=O)c2ccncc2F)n1 | -5% | 0.56
Cc1ccccc1-c1nccc2ccccc12 | -2% | 0.3
CCc1noc(-c2cnc3nc(C)ccc3c2Nc2cccc(C(=O)OC)c2)n1 | -9% | 1.07
CCn1ccc(C(=O)NC(C)(C)c2nc3c(c(C(N)=O)n2)OCO3)n1 | -10% | 1.31
CN1CCC(CC(=O)NCc2ccc(CN3CCCC3=O)cc2)CC1 | -4% | 0.54
Cc1c(CNc2ccnc3c2cnn3C)cnn1C | -6% | 1.03
CCn1cc(-c2cc(-c3ccc4c(c3)OCCO4)nc(N)c2C#N)c(C)n1 | -3% | 0.57
